Source: article PMC12136788
Some of the results follow.

B1: chr1:113590523:113590624:+|CDS|ENSG00000081026|unk|FALSE|unique (ssRNA)
RNA: GGGAGUUCUACAGUCCGACGAUCUCAUCUGACUGGAUGAAGACUGUUCCAAGUUACAACCAAACAAAUAGCUCCAUGGACUUUAGAAAUUAUAUGAUGAGAGAUGAGACUCUGGAACCACUGCCCAAAAACUGGGAAAUGGCCCAACAGAGGAUUGAGCAUCA
B2: chr1:17826356:17826472:+|CDS|ENSG00000117148|unk|FALSE|unique (ssRNA)
RNA: GGGAGUUCUACAGUCCGACGAUCAGGGAGCUGAUGGGGGAUCACGUCUCCUCCACCAAGGCCACAGUCUGGGAGGGUUCCAAUAGAAACUUUAGUGUCUGGCUAGGAGCGUCCGUGGUGGCUCACCUUUCUACCUACCAGUCUCAACAGAGGAUUGAGCAUCA
B3: chr2:96375651:96375752:+|3pUTR|ENSG00000121152|unk|total|mutant (ssRNA)
RNA: GGGAGUUCUACAGUCCGACGAUCAUUGACUAAGACAGUGGGUAUGCAAGAUAAGUUUAUUUUAUAUAAAAUACUUUGGGAAGCCGGUGUUCCCGGACUGGUGUGACAGUUCCAUGAAAUUAUGAGAGACCGGGGAUCCUUCCACAACAGAGGAUUGAGCAUCA
B4: chr11:27368498:27368690:-|CDS|ENSG00000205213|msi1|FALSE|unique (ssRNA)
RNA: GGGAGUUCUACAGUCCGACGAUCACCCCUUUGUUUGCCAUUUCCUACAGGUGAAACGCCAUCAUUAGGAUUCACUGUAACGUUAGUGCUAUUAAACUCACUAGCAUUUUUAUUAAUGGCCGUUAUCUACACUAAACUAUACUGCAACAGAGGAUUGAGCAUCA
B5: chr2:96301550:96301651:-|CDS|ENSG00000144028|msi1|total|mutant (ssRNA)
RNA: GGGAGUUCUACAGUCCGACGAUCAAGGCGAAAGGAGAUUGACCUGCUGCUGGGUCAAACAGAUGAUACCAGAUACCAUGUGCCCGUGAACCUGGGCAAAAAGAUCACAGACUAUGGUGGAGAUAAGGAAAUCCAAAAUAUGGGCAACAGAGGAUUGAGCAUCA
B6: chr12:48145849:48145950:+|3pUTR|ENSG00000152556|msi1|total|mutant (ssRNA)
RNA: GGGAGUUCUACAGUCCGACGAUCCAUGACCAGUUCUGGCCAGGAGCUGGAGGAGCAGGCAGUGGGUGGGAGCUCCUUUCCGGCCGAAUUUAACAUGACUUCUGCCCCAGCUUUAUCUGUCACACAAGGCUGGGCACCUCCCGUCAACAGAGGAUUGAGCAUCA
B7: chr1:62654060:62654161:-|CDS|ENSG00000116641|unk|FALSE|unique (ssRNA)
RNA: GGGAGUUCUACAGUCCGACGAUCCUUGUUUUCUACCCAUCUCUUAUCCCAACUUUUUACAAAGGUGCCCCUUACCGAAGCAGUAGAUCCAGUGGAUUUGGAAGAUUACCUCAUUACUCAUCCUUUGGCUGUGGAUUCUGGGCCCAACAGAGGAUUGAGCAUCA
B8: chr4:106367042:106367435:-|CDS|ENSG00000250298|control|control|control (ssRNA)
RNA: GGGAGUUCUACAGUCCGACGAUCUUGUAGCCUGGGCCGCAGUUGUCACCUCCACAGCUUCAUGCGUCGAGGUGGGCUAGAGGUAGCCCUGCAGGUCCAGGUGUUGGACACUCCAGGUUAUCCACACAGCAGGCUGAGCAAGAACAACAGAGGAUUGAGCAUCA
B9: chr1:111117940:111118053:-|3pUTR|ENSG00000156171|unk|total|mutant (ssRNA)
RNA: GGGAGUUCUACAGUCCGACGAUCAGGCUGACAGUAACACUGAUGAAUGCUGAUAAUCAGGAAACAUGAAAGAAGCCAUUUGACCGAUUAUUCUAAAGGAUAUCAUCAAGAAGACUAUUAAAAACACCUAUGCCUAUACUUUUUCAACAGAGGAUUGAGCAUCA
B10: chr17:41502224:41502594:-|three_prime_utr|ENSG00000171401|control|control|control (ssRNA)
RNA: GGGAGUUCUACAGUCCGACGAUCCACGUCUGGAGCAGGAGAUCGCCACCUACCGCAGCCUGCUCGAGGGCCAGGACGCCAAGUAGGUCCUCUCCAGCCUCUUUCUUAGGAUAGUGACUGCAGGACCCGUGGGUGUCAGAGCAGCAACAGAGGAUUGAGCAUCA
B11: chr3:111884732:111884833:+|CDS|ENSG00000144824|msi1|total|mutant (ssRNA)
RNA: GGGAGUUCUACAGUCCGACGAUCCUUCAACCCAAGUUAACCCGACACAAGGAGCUUGCAUCUGAAAACAUCAAUUUGAGAACCCGGAAGUACUCCAGCAGCAGCCUGAGUCACAUGGGAGCCUACAGCCGAUCACUUCCCAGGCAACAGAGGAUUGAGCAUCA
B12: chr17:63832812:63832858:-|3pUTR|ENSG00000108604|msi1_unk|total|mutant (ssRNA)
RNA: GGGAGUUCUACAGUCCGACGAUCCCAGCCCUGGAGCCUGGAGGGAGACCACCCUCUGGGUCCUUGCUGGGGCCGCAGACACGCCGGCUGGGGUGAGGAGUGUCUGCUGUCACCCUCUACUCUCCAGCUUCCGUCUUAUAAAUGCAACAGAGGAUUGAGCAUCA
B13: ENSG00000110497:stop:overlap|stop_codon|ENSG00000110497|stop_codon|NA|stop_codon (ssRNA)
RNA: GGGAGUUCUACAGUCCGACGAUCUGGAUGGUGGCAGCAGCAGGGGGGACGCUGCAGGCCCUAGGGGAGAACCACGGAACAGGUAGAGACAAACGUUGCACUGGUGCCUCCCCUCGAACCGCCAAGCAGAAACCGGACCUCACACAACAGAGGAUUGAGCAUCA
B14: chr3:58172026:58172127:+|3pUTR|ENSG00000136068|msi1|FALSE|unique (ssRNA)
RNA: GGGAGUUCUACAGUCCGACGAUCGGCAGACCUUUAGGUUUUGCUGCUUAGUCCUGAGGAAGUGGCCACUCUUGUGGCAGGUGUAGUAUCUGGGGCGAGUGUUGGGGGUAAAAGCCCACCCUACAGAAAGUGGAACAGCCCGGACAACAGAGGAUUGAGCAUCA

Each binder was assayed against MSI1 full-length (mouse, UniProt Q61474 1-362) (assay: nsRBNS (natural sequence RNA bind-n-seq); RBNS binding buffer (assumed for nsRBNS): 25 mM Tris pH 7.5, 150 mM KCl, 3 mM MgCl2, 0.01% Triton X-100, 500 ug/ml BSA, 20 U/ml SUPERase-In, 4 C; UNK is unkempt and MSI1 is Musashi-1; names of the RNAs are library labels; protein concentration not given here; high values mean tight binding).
Sequence of UniProt Q61474 (Q61474 whole entry): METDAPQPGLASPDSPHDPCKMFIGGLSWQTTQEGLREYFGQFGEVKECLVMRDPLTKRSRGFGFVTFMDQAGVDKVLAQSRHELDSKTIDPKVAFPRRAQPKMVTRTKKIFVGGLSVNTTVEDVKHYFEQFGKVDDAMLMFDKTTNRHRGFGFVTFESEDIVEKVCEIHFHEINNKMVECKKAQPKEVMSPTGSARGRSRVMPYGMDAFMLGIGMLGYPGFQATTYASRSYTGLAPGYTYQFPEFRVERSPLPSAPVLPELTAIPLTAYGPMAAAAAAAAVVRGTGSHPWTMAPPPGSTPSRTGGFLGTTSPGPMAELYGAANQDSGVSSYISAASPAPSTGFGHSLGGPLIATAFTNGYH

Binder	binding signal [enrichment R]
B1	0.708
B2	1.17
B3	0.62
B4	1.09
B5	0.411
B6	0.378
B7	0.626
B8	0.439
B9	0.337
B10	0.46
B11	0.457
B12	0.292
B13	0.547
B14	0.549
